# The supplement of paper PMC3334620
# In all, about 33,000 sequences were measured (“E-score (-0.5 to 0.5)”: median about -0.012, highest 2% from about 0.27 on). This is one part of the list.
# Biological target: T1, Vhr1 (UniProt P40522)
# T1 sequence: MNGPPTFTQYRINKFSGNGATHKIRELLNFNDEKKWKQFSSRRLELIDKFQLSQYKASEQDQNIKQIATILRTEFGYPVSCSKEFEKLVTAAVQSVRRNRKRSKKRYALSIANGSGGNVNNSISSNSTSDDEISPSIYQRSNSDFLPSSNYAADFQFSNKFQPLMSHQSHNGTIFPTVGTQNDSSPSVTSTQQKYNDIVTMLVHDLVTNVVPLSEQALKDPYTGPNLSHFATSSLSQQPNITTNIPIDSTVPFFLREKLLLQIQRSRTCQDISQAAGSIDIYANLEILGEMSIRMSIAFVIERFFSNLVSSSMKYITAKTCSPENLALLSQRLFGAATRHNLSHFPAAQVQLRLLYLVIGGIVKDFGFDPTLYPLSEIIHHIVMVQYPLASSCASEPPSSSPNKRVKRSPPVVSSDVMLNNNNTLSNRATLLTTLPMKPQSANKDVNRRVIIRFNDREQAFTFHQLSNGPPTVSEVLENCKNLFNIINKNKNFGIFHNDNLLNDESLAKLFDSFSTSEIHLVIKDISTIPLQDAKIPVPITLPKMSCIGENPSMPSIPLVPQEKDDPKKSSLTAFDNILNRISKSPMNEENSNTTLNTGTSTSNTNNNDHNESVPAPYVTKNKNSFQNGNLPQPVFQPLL
# Assay: PBM E-score (8-mer binding enrichment) (E-score (-0.5 to 0.5)); higher = stronger / more preferred TF binding; most listed sequences are background and not binding sites
# Settings: protein concentration: 200 nM; construct: GST-full length
# Method in brief: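 Detection of bound protein used fluorescent anti-GST, with scans normalised by masliner. The proteins were GST-tagged yeast transcription factors applied at about 100-200 nM to universal all-10-mer Agilent arrays made double-stranded by primer extension. Each ungapped eight-base word, pooled with its reverse complement, was scored with an E-score from the Universal PBM Analysis Suite.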
row,Sequence,PBM E-score
1,GCTTTCAA,-0.145
2,CGTGCCAC,-0.136
3,CGACAGAA,0.00139
4,ACAAAGGG,-0.123
5,CGGCTACG,-0.0504
6,GAGTCTAA,-0.185
7,ATGTACAG,0.061
8,CAATTCGA,-0.284
9,GCTTATCC,0.0124
10,CGACGTAG,-0.267
11,CAGTCCAC,0.0259
12,CCAGGTAG,0.0644
13,ATCAGGAT,0.146
14,CTTCAAAG,-0.278
15,ACCGTACG,-0.23
16,GGATCGAC,0.081
17,ACAACCCT,0.00715
18,ATTTGAAA,-0.182
19,ACATCAAA,-0.0469
20,CCAAAGGA,-0.185
21,ATGTCCAG,-0.098
22,AGAGATGC,-0.107
23,ATCCGGAT,0.131
24,ATCCGGTA,0.0588
25,AGAATTTC,-0.195

row,Sequence,PBM E-score
1,AGTTACCC,-0.0374
2,GCCAATGA,0.0656
3,GACGCTGC,-0.344
4,ACTCAACA,0.289
5,GGACCGCA,0.0275
6,CGTGAGGA,-0.0762
7,AGACGCAG,0.0706
8,CTTACCGC,0.109
9,CTACCAAC,-0.0255
10,ACCCTAGA,0.0664
11,ACTAAAGA,-0.158
12,CAGTTTTA,-0.0945
13,TATAAGCA,0.00418
14,GTACCTGA,0.19
15,AAGCACTG,0.0811
16,CAAGGCAC,-0.0306
17,GTAGTTCA,-0.166
18,CCCCGGGC,-0.00428
19,CTGTGGAC,0.0543
20,GAGGACTC,0.132
21,CCGTTTGC,-0.183
22,AACTCCTA,0.017
23,AGATATTG,0.165
24,TGACGCAA,-0.142
25,AACTGCAT,0.176

row,Sequence,PBM E-score
1,CACCGGCG,0.154
2,AATACTGT,0.108
3,AACCTGAT,0.17
4,CCAGCTTA,-0.0602
5,AATATAAG,0.2
6,GGCAGAGA,-0.108
7,AGTGGGGG,-0.308
8,AGAAGTTG,-0.226
9,ATGGAGCC,-0.0157
10,TAATGTGA,0.0633
11,ACGAATCA,0.336
12,CGGCCATC,-0.177
13,AATATGCT,-0.0531
14,CAATCCTC,0.0047
15,CGAATAAA,-0.114
16,CGAGGCAA,0.0337
17,TCACTCGA,-0.0792
18,CAGACACA,0.207
19,AGTTGCTA,0.125
20,CTAGGGTC,-0.266
21,CACGGGCG,0.131
22,AGGCACAG,-0.0624
23,ATCGGTAA,0.0902
24,AGCCTTGA,-0.116
25,ACAAAGAA,-0.116

row,Sequence,PBM E-score
1,GAATAAGC,-0.0432
2,GATCGGAA,-0.121
3,ATTAACTG,0.224
4,GATAATGC,0.114
5,GTCTCCTA,-0.186
6,CTGAGGCC,-0.134
7,TGCTAGAA,-0.167
8,AACAGCGT,-0.0999
9,CAAACCCC,-0.132
10,CGTGACGC,-0.144
11,AATCAGCT,0.199
12,AGTGTTGG,0.107
13,CGTTGTTA,-0.118
14,GAGGCGCC,-0.106
15,CGAGTACG,0.0468
16,CAACTACG,0.0145
17,TAGGAAGA,-0.132
18,CACCCCAC,0.258
19,ACCAAGGT,-0.0495
20,TCTGTAAA,-0.0857
21,ACCATCCT,0.0534
22,AAATATCG,0.0313
23,CGCTGGGA,-0.0413
24,AGACGGGC,0.00874
25,AAGTCTCT,-0.338

row,Sequence,PBM E-score
1,ATCTACAG,0.0297
2,CAATGTGA,0.106
3,GAGCTCAC,0.102
4,GCTGGCCA,-0.0437
5,CCTACTTA,-0.0958
6,ACAGACAA,0.185
7,CGCACGCA,-0.00175
8,CAGGGACA,-0.0096
9,GTATTTCA,-0.205
10,AGCTCGGA,-0.107
11,ACGGATTC,0.0689
12,TATGCGGA,0.0534
13,TACCCCTA,-0.0556
14,TAGATCTA,-0.0662
15,ATATCAAA,0.061
16,AGCCGTTC,-0.109
17,CGCAAGCG,0.185
18,GGTCGGAC,0.0737
19,AGTGTAGA,0.121
20,GACAGAGC,-0.0414
21,AACTGGGA,-0.216
22,GCTACCCA,0.0505
23,AAAAAGGG,-0.0897
24,AGGGAAAA,-0.139
25,AGAGGGTC,-0.287

row,Sequence,PBM E-score
1,CTGCATTC,0.0926
2,CAACACAC,0.268
3,AAGTCGTC,-0.00836
4,ATGATAAA,0.093
5,ATATACGG,-0.0378
6,CCCCAAAA,-0.0927
7,CATCTAGG,0.00943
8,CTTCGTAA,-0.218
9,CCTAATAA,-0.208
10,ATAAGCCC,-0.167
11,GGATACGA,-0.0506
12,ACTCGATG,0.164
13,CAGGCCTG,-0.0801
14,CGCAGGGA,-0.136
15,CCTCAGGA,-0.0996
16,AAAACCCA,-0.0113
17,GCTCGCAA,0.0852
18,ACTGGGTG,0.25
19,ACTCTTTC,-0.172
20,ATCTAGAA,-0.192
21,CCTTCTGA,-0.149
22,ACGCATGG,0.114
23,GATATCGC,0.00024
24,ACGTACGG,-0.115
25,GAATAGAA,-0.0552

row,Sequence,PBM E-score
1,AGACCGAA,0.12
2,CTGCTAAG,-0.346
3,AAGCCGTA,-0.0567
4,GTGGGTCA,0.365
5,AAGGCAGT,-0.0436
6,AAGGCATA,-0.129
7,ACACAACG,0.165
8,AACTCGCC,0.00825
9,ACTAGACC,0.0898
10,ATCGGTGC,0.0297
11,AATCATTC,0.251
12,ACTTACCG,0.0832
13,CACCTGTA,-0.0847
14,GGAGGCAC,-0.089
15,ATACAAAG,-0.0042
16,GCACACGA,0.0343
17,CGAGGGCA,-0.00827
18,ATCGCTAA,-0.0716
19,ACACTGGG,-0.0839
20,ATATCTTA,0.0729
21,ACGCCAGG,0.21
22,AACTTACT,-0.0933
23,GGAATGCC,-0.0345
24,TCATCTCA,0.201
25,CCGATGTC,0.00649

row,Sequence,PBM E-score
1,CAGCTAAC,-0.15
2,CGCTTGTA,-0.0149
3,ACCTAGGA,0.0481
4,GCCGGCAA,-0.216
5,AAAGGGAG,-0.0894
6,CTATTGTA,0.0701
7,GCCGCTAA,-0.223
8,AGCTGTAC,0.016
9,ATTCATGG,0.21
10,ACCTGCAA,-0.106
11,CAATTCTA,-0.108
12,CGCCAAGA,-0.0615
13,ATACATGA,0.118
14,CCCATGGA,0.0783
15,CATTGAAA,-0.0955
16,GCACCACA,-0.0353
17,TAACGAGA,-0.0121
18,AGCACCAG,-0.0111
19,CCGCCTCC,0.00022
20,CGACCTTA,-0.116
21,AAGTTCTA,-0.221
22,AATAGGTA,-0.0075
23,AAAACCAT,0.0569
24,AGATGTGC,-0.0463
25,TTATTGAA,-0.115

row,Sequence,PBM E-score
1,CGGTGGCA,-0.116
2,AGGCATAT,-0.0741
3,ATAGGAAC,-0.151
4,CCGGCCCG,0.231
5,GGTATACA,0.168
6,AAACAGAG,0.0118
7,ATACCTTG,0.0232
8,CAGAGTTA,0.103
9,CGACCGTA,-0.0441
10,ACGATTGA,0.0265
11,CCACCCGA,0.118
12,GGGTTCCA,-0.158
13,ACTGCAGG,-0.157
14,GAGCCCTC,-0.132
15,GTGCTATA,0.0366
16,CTTCAAGC,-0.137
17,ACGTCCAG,-0.147
18,AGAAGACT,-0.0827
19,ATAATTTA,0.235
